Our source for the binding signal (log2 normalized intensity) values is article PMC10726135.

The other results are listed elsewhere or left out. At the low end of the ranking, values are background and their order means little. Measured with an extract: partners may take part in the binding.

For this assay, the target named is T1, HNF4alpha2 (COS-7 nuclear extract) (UniProt P41235).
T1 sequence: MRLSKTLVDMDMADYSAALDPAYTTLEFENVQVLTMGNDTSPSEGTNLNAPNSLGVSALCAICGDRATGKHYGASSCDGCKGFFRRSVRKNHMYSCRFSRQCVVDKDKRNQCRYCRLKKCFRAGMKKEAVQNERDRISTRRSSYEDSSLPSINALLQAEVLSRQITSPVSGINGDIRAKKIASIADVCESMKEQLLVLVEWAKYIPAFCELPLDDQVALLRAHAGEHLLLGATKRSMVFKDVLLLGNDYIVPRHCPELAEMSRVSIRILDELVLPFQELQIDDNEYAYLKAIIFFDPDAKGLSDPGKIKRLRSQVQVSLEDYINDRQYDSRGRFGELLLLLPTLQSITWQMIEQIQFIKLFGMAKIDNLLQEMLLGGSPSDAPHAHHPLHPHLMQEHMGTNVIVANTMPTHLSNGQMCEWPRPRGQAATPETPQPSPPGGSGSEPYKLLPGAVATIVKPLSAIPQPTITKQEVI
The experiment in a line: protein-binding microarray. The settings on record: COS-7 nuclear extract on double-stranded Agilent 4x180k PBM; binding buffer, salt, pH and temperature not given; high values mean tight binding; double strand, one strand shown; sequences stand for … in …GCCTAGGGAGATTAGAGTATCGGTCGA
For CCTCAGTAAATGCTGGAGATGAGGCTCAGA, the binding signal (log2 normalized intensity) is -1.04.

For CCAGAGTAACTATGGGGCAAAGTGCAAGCA, the binding signal (log2 normalized intensity) stood at 4.02.

With GGGCCTTTCCAGCAAATCCCAATTCACTGA, the binding signal (log2 normalized intensity) was -1.15.

In the case of GCACACAAAAAAAACCACTCTTATCAGGCC, the binding signal (log2 normalized intensity) was -1.07.

Turning to TCAGCAGAGGACAGAAGAAGGAAAAGGCCT, the binding signal (log2 normalized intensity) was -0.984.

With GTGTGGCTTCCAAGGGGAATGTGGATGCTG, the binding signal (log2 normalized intensity) is -0.766.

As for GAACTCTAAGCAGCGAAGCTGTGTCAGGCA, the binding signal (log2 normalized intensity) is -0.795.

As to AGGCCTTCCTATCTCTACTTGCCGAAACAT, the binding signal (log2 normalized intensity) was found to be 0.743.

For the sequence CCATGACCTTTGTACTAATGATTTGTAAAT, the binding signal (log2 normalized intensity) turned out to be 5.25.

Turning to TAACAGCTTCTGTTCGCAGACCTGCCAAAG, the binding signal (log2 normalized intensity) is -1.08.

With ATCTAAGGGCCTAGAAGAGTTCCTGACAAT, the binding signal (log2 normalized intensity) was -1.17.

As to GTGGGGGAGGAGACAGCTACGGAATGCTTC, the binding signal (log2 normalized intensity) is -1.15.

Turning to ATTCAGAACTTTGACCACCTACTGTTTGTG, the binding signal (log2 normalized intensity) is 2.05.

ACACACAATAAGGACTTTGGACCGTCTTGT: the binding signal (log2 normalized intensity) is 7.27.

TGGCTCATTTTGGGCATCTGCAGGGCAGCA: the binding signal (log2 normalized intensity) is -1.09.

Regarding AGCGGCCTTCCCCTTTTTCTGTAAAGCTTT, the binding signal (log2 normalized intensity) worked out at 1.21.

For the sequence TTGCTCCCTGGGAACCCCTCCAGCATTCTC, the binding signal (log2 normalized intensity) is 1.94.

Turning to ACTTTGGTGGCTTTTGCTGACATGCTCTTG, the binding signal (log2 normalized intensity) is 1.2.

TCACTGACCTCTGCCCTACTGTATATCCTG: the binding signal (log2 normalized intensity) was 2.39.

With TCTCAAGTTCAGTCTTTATTGGTACGTTCC, the binding signal (log2 normalized intensity) turned out to be 2.2.

CTCCCCCAGGCGACTGGGCCAGGAGCAGGA: the binding signal (log2 normalized intensity) stood at 2.33.

TTGAGGTTCACTGGGGAGACTCTCTCTCCT: the binding signal (log2 normalized intensity) was -1.06.

Take AAACTTTATCTCCCTTGCTTTATCCGACCA: the binding signal (log2 normalized intensity) stood at 0.536.

CAGCTTTTATGTCAAACCACTTCCCCTTTC: the binding signal (log2 normalized intensity) turned out to be 1.85.

On to GCTTGGCAAACATTTCACTTTGCTCCCTCC, for which the binding signal (log2 normalized intensity) is 1.16.

On to ATTGCCGACCTCATGAGTAGAGAGCAATCA, for which the binding signal (log2 normalized intensity) was -1.18.

Turning to CCTGTTTGCTTCTGCTGTTTGTTTCACTAA, the binding signal (log2 normalized intensity) came out at 1.5.

Turning to TGTCAGCTAGAGGCCCTGCATTAAACAAGA, the binding signal (log2 normalized intensity) was -1.16.

Take ACCTTTGCTCATGTCCTCTTGCTTCCTGGG: the binding signal (log2 normalized intensity) worked out at 1.37.

Consider GCCTCACTAAGTCCTGCTTAGAGCATCCAA, for which the binding signal (log2 normalized intensity) is -1.17.

Regarding CAGGGAGAAGGCAAAAATGCAGGCAATGAA, the binding signal (log2 normalized intensity) was -1.18.

As for AAAGGGACAGGGGTCATCAGGGGTCCTGGC, the binding signal (log2 normalized intensity) amounted to 0.949.

For the sequence CAACAAGGTGGAGACCTCTGCAGGAGGACT, the binding signal (log2 normalized intensity) is -1.15.

On to CACTTGGATAGCGCGTGGCCCAAGGCCTCT, for which the binding signal (log2 normalized intensity) was -1.3.

Regarding AGTATGCAGCGGGCAGCCCGTGTGGGCGGG, the binding signal (log2 normalized intensity) is -0.679.

For CTGTCACACTTGCCCTTTGCCCTCACTGGT, the binding signal (log2 normalized intensity) was determined as 7.1.

CCCTAATCTCACTCTTTGTTATTTATTGGC: the binding signal (log2 normalized intensity) was determined as 1.89.

AGTCTGTGACTTGATCTTTGACTGGATTCT: the binding signal (log2 normalized intensity) amounted to 2.16.

As to AGTATTGAGGCCGGAGGGCAGGCGGGCCGC, the binding signal (log2 normalized intensity) is -0.782.

On to CCCTGAGGCCAATGAGGGAAGTTATTAACA, for which the binding signal (log2 normalized intensity) is -0.951.

Turning to ATCCAGTCCTCACCCAGAACTTTGACCGTT, the binding signal (log2 normalized intensity) came to 4.59.

Take ATGCCCCTCCCAGGGACACATGCCCCTTCC: the binding signal (log2 normalized intensity) is 5.44.

Turning to TAGTTACCCAAGGGATGGCATCACCTTTGG, the binding signal (log2 normalized intensity) is -0.611.

On to GTACTTTTCTGTTTGTCTTACTGTGTTGTC, for which the binding signal (log2 normalized intensity) stood at 2.24.

Consider TTCCAGCCAAACCAGGTCATGCATTCTGCT, for which the binding signal (log2 normalized intensity) is -1.17.

As to TGAACGACTTGACAAAGGTCATTCATGTGC, the binding signal (log2 normalized intensity) amounted to 3.72.

Regarding AAGTAGTCAGTGTCCAGCACACCTTTTTTT, the binding signal (log2 normalized intensity) was -1.2.

As to TGTCATCCTTTTGCTTAAAACGCCTGCAGA, the binding signal (log2 normalized intensity) was 0.637.

Regarding AGTAAAACTGGAAAATCAAAGACTCAGATG, the binding signal (log2 normalized intensity) is -1.19.

Take ATTCCAGAGAAGCACATCCAGGCAGCTTCA: the binding signal (log2 normalized intensity) is -1.12.

Consider TCTTCAGAGAGTCTGGCTGACTAACAAGCT, for which the binding signal (log2 normalized intensity) was -1.

Take TCAAAGGCAGCCTTCGTTTGCTTTTCCTTA: the binding signal (log2 normalized intensity) was -0.675.

AATAGTGACCTCTGCTGGCCAGTGGAAAAC: the binding signal (log2 normalized intensity) amounted to 1.08.

Take GGCATGGGAAGCAGTGAGGGTGGGTTCAAA: the binding signal (log2 normalized intensity) amounted to 0.803.

Regarding GCATTCTGTTTCCTACTGACCTCCGACCCC, the binding signal (log2 normalized intensity) was 6.31.

Regarding ACCGCAAATAAAAGAGGGCCCCATCATGTG, the binding signal (log2 normalized intensity) was -1.12.

Take CTATTAACTTTTCCATGTCCAAAGGTCTTC: the binding signal (log2 normalized intensity) amounted to 4.86.

As for ATCTTCTTTCCTGGTGCCTCCTTATCTCCC, the binding signal (log2 normalized intensity) is 1.61.

Turning to TCGCCTTTTATTTTTCCCCTGAAATATCAT, the binding signal (log2 normalized intensity) turned out to be 1.64.

Consider CCTATTTGCTTGTGAATGAAAGAGACTAGT, for which the binding signal (log2 normalized intensity) is 1.14.

As to CACCAGGTGGAGTCTCCTTGAGGGCAAAGT, the binding signal (log2 normalized intensity) worked out at 3.33.

For GTGCTATCTCAGCTCACTGTAACCTTTGCC, the binding signal (log2 normalized intensity) was 3.93.

AACTCTTCATTATGGATAGGCACATATTGG: the binding signal (log2 normalized intensity) was 1.73.

With TCTCCAAGTCAAACATTAGCCAGGATCAGA, the binding signal (log2 normalized intensity) is -1.22.

For AGGCATTAGCAATGCGAGAGTACACAGAAG, the binding signal (log2 normalized intensity) was -1.03.

As to TCCTGCTAGTCACATCAAAACCTCCCAGCT, the binding signal (log2 normalized intensity) was -0.66.

Turning to CGAGTTGTTCTCCGTCTATAAATACGCCTC, the binding signal (log2 normalized intensity) was -1.15.

Consider TGGGTTATGTTAGACCAGCCAATTCTACTG, for which the binding signal (log2 normalized intensity) was -1.05.

As for TGGGGGAAGGGCAGGGCCTGGGAGATAACC, the binding signal (log2 normalized intensity) is -1.18.

For GGTCAAAGTGCGTCCTGTGGCAAAGGTGAA, the binding signal (log2 normalized intensity) was 2.73.

As for GCAGGTGAACGACTTGACAAAGGTCATTCA, the binding signal (log2 normalized intensity) came out at 4.28.

Take GAATCCCGGGAATCCTCAGCCTTCTCCGCG: the binding signal (log2 normalized intensity) is -1.21.
